Data: PubChem BioAssay AID488969 (Vanderbilt High Throughput Screening Facility, 2010)
In all, about 110,000 compounds were measured (“z-score”: median about -0.1, highest 2% from about 2 on). The list shows a part of the results. The source made the active and inactive calls.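 Rule for the calls: active = z-score in the third read window above 3 or below -3; inactive = the rest.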

Biological target: Metabotropic glutamate receptor 8 (Rattus norvegicus) (UniProt P70579)
Assay: rat mGluR8 modulators via GIRK flux, primary screen, cell-based, thallium flux, HTS (AID 488969)
Settings: HEK293 rat mGluR8, GIRK (G protein-gated inwardly rectifying potassium channel) thallium flux, FluoZin2; at 10 µM; stronger effect = higher value; submaximal glutamate (EC20) added with thallium

UniProt P70579, sequence (P70579 whole entry, looked up): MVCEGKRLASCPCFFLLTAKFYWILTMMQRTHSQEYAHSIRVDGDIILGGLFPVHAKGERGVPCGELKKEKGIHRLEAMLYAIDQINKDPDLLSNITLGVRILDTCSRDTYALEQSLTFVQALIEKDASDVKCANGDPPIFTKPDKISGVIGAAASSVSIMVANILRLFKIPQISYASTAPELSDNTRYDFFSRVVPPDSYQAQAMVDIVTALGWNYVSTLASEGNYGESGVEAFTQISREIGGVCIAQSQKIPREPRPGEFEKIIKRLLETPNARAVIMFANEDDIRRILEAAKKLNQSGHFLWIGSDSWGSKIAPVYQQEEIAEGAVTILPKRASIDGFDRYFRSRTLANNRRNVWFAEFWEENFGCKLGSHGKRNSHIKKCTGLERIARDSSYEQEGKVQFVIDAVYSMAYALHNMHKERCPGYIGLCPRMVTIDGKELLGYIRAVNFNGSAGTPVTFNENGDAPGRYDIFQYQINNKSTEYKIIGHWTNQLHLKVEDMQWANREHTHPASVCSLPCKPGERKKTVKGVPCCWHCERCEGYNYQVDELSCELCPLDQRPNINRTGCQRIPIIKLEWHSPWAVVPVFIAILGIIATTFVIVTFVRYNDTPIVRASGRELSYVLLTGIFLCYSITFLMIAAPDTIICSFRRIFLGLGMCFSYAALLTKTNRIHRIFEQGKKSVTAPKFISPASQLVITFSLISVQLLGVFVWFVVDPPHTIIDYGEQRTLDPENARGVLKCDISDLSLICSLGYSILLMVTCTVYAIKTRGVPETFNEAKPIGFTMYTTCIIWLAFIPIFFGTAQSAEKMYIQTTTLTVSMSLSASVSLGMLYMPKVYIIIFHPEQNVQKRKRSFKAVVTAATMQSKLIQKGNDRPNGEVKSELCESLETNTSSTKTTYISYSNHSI

Compound | z-score
COc1ccc(OC)c(S(=O)(=O)Nc2ccc(C(C)=O)cc2)c1 | -0.0352
CN1C(=O)CC(N2CCC(c3nc4ccccc4[nH]3)CC2)C1=O (configuration not stated) | -0.0202
CCc1nc(NCc2ccccc2)c(C#N)c2c1CCCC2 | -0.163
CCOC(=O)C1=C(C)N(C)C(=O)NC1c1c(C)nn(-c2ccccc2)c1C (configuration not stated) | -0.0648
CCCCOCCCNC(=O)c1ccc(OCC)cc1 | -0.474
Cc1ccccc1-c1noc(-c2ccccc2F)n1 | -0.345
O=C(CC(O)(c1ccccc1)C(F)(F)F)c1cccs1 (configuration not stated) | -0.171
COc1ccc(-c2nnc(Nc3ccc(CC(N)=O)cc3)c3ccccc23)cc1 | -0.35
CC(/C=C/c1ccc(N(C)C)cc1)=N\N=C(/N)SC1CC(=O)N(c2ccc(C(=O)O)cc2)C1=O (configuration not stated) | 0.455
CC(=O)C1(C)OC(N)=C(C#N)C(c2ccccc2)C1(C#N)C#N (configuration not stated) | -0.0829
CCOc1ccc2nc(-c3ccccc3)nc(SCC(=O)Nc3ncc(C)s3)c2c1 | -0.067
CCC1CCCCN1CCNC(=O)CCS(=O)(=O)c1ccc(Br)cc1 (configuration not stated) | 0.377
Cc1c(NCc2cc(Cl)ccc2O)c(=O)n(-c2ccccc2)n1C | -0.0479
CCOC(=O)COc1c(OC)cc(Cl)cc1C1Nc2ccccc2C(=O)N1c1ccccc1 (configuration not stated) | 0.355
CCOC(=O)c1sc2nc(C3CC3)cc(-c3ccc(F)cc3)c2c1N | -0.494
CCOc1ccc(CC2CC(=O)NC2=O)cc1 (configuration not stated) | 0.322
CN(C)C1C(=O)c2ccccc2C1=O | -0.198
Cc1ccc(S(=O)(=O)NC(CC(N)=O)C(=O)O)cc1 (configuration not stated) | 0.938
O=C(NCCc1cccc(Cl)c1)c1ccc(Cl)c([N+](=O)[O-])c1 | 0.0647
O=c1oc(Nc2cccc(F)c2)nc2ccccc12 | -0.269
Nc1ccc(C(=O)Nc2ccco2)cc1 | -0.388
Cc1cccc2cc(C(c3nnnn3C3CCCC3)N3CCOCC3)c(=O)[nH]c12 (configuration not stated) | 0.212
COc1ccc(/C=C/C(=O)c2ccc(Cl)cc2)c(OC)c1 | -0.125

Compound | z-score
COc1cccc(C(=O)COc2ccccc2-c2ccccc2)c1 | 0.361
Cc1cccc(-n2c3nc(=O)[nH]c(=O)c-3cc3c(C)nn(-c4ccccc4)c32)c1C | -0.128
Clc1cnc(N/N=C/c2ccco2)c(Cl)c1 | 0.0323
CCOC(=O)C(=NC1CCCCC1)NNc1cccc(C(F)(F)F)c1 | -0.0996
CC(c1ccccc1)C1C(C#N)=C(N)SC(N)=C1C#N (configuration not stated) | 0.0839
NC(=O)c1c(NC(=O)CSc2nc3c(c(C(F)(F)F)n2)CCc2ccccc2-3)sc2c1CCCC2 | -0.123
O=C(NCc1ccc(F)cc1)c1cc2sccc2n1Cc1ccc(F)cc1 | 0.0229
O=C(NCc1ccc(F)cc1)c1ccc(S(=O)(=O)Nc2cccc(C(F)(F)F)c2)cc1 | 0.136
CC(C)(C)C(=O)Nc1nnc(SCC(=O)NCc2cccs2)s1 | 0.0421
O=C(/C=C/c1ccccc1)N1CCN(Cc2nc3ccccc3c(=O)[nH]2)CC1 | -0.232
CC(C)NC(=O)NC(=O)CSc1nnc(COc2ccccc2F)n1C(C)C1CC2CCC1C2 (configuration not stated) | 0.707
COc1ccc(C)cc1S(=O)(=O)N1CCN(S(=O)(=O)c2cc(C)ccc2OC)C(C)C1 (configuration not stated) | -1.66
CN(C)N1C(N)=C(C#N)C(c2cccnc2)C2=C1CCCC2=O (configuration not stated) | 0.225
Cc1ccc2nc(C)c(C(=O)N/N=C/c3ccc(N4CCOCC4)cc3)cc2c1 | -0.281
Cc1ccc(C(=O)NNC(=O)c2ccc(SCC3CCCO3)c([N+](=O)[O-])c2)cc1 (configuration not stated) | 0.19
COc1cccc(N2CCN(S(=O)(=O)c3ccc4nc(-c5ccccc5)[nH]c4c3)CC2)c1 | 0.374
COc1ccc(Cl)cc1C(=O)NNC(=O)c1cccnc1 | -0.0155
O=C(Nc1ccc2c(c1)OCO2)c1c(F)c(F)c(F)c(F)c1F | -0.0616
CC12CC(c3ccccc3O1)N(C(=O)c1ccc(Br)o1)C(=O)N2c1ccccc1 (configuration not stated) | -0.193
O=C(NCCCN1CCOCC1)c1cc(Cl)ccc1[N+](=O)[O-] | -0.502
Cc1ccc(C(NC(=O)N2CC(C)OC(C)C2)C(Cl)Cl)cc1F (configuration not stated) | 0.044
CCOc1cc(S(=O)(=O)N2CCOCC2)ccc1F | -0.0739
CCCCNC(=O)NS(=O)(=O)c1ccc(C(=O)OC)o1 | -0.374

Compound | z-score
COc1cccc(Nc2nnc(SCn3nnc4ccccc4c3=O)s2)c1 | 0.432
O=C(NCc1ccccc1)c1ccc(S(=O)(=O)N2CCCc3ccccc32)cc1 | -0.354
CCCNC(=O)c1nc2ncc(Br)cn2n1 | -0.268
O=S(=O)(N/N=C1/CCCc2ccccc21)c1ccc(Br)cc1 | 0.0361
COC(=O)C1CN(S(=O)(=O)c2ccc(C)cc2)CCN1S(=O)(=O)c1ccc(C)cc1 (configuration not stated) | 0.112
CCCN(CCC)CCNC(=O)CS(=O)Cc1nc(-c2ccc(C)cc2)oc1C (configuration not stated) | 1.19
Cc1cc(C)c2c(=O)n(CC(=O)N3CCC(N4CCCCC4)CC3)sc2n1 | -0.421
COc1cc(C(=O)NCc2cn3ccccc3n2)cc(OC)c1OC | -0.342
O=C(CCCC(=O)Nc1cccnc1)Nc1cccnc1 | -0.0409
COc1ccccc1C(=O)Nc1nc2nc(-c3ccccc3)cc(=O)n2[nH]1 | -0.239
CCc1ccccc1NC(=O)CSc1nnc([C@@H](N)Cc2ccccc2)o1 | -0.715
O=C(N/N=C/c1cc([N+](=O)[O-])ccc1O)/C(=C\c1cccs1)NC(=O)c1ccccc1 | 0.101
CCC(=O)N1C(C(=O)O)CSC1c1ccc(OC)cc1 (configuration not stated) | -0.165
COC(=O)c1sccc1NC(=O)CSc1ccccc1NS(=O)(=O)c1ccc(Br)cc1 | 2.31
CCCc1[nH]nc2c1C(c1ccc(OC)c(Cn3nc(C)c(Br)c3C)c1)C(C#N)=C(N)O2 (configuration not stated) | 0.0911
O=C(c1ccc(CNS(=O)(=O)c2cccc(C(F)(F)F)c2)cc1)N1CCOCC1 | -0.0878
Cc1ccc(-n2c(C)cc(C(=O)CSc3n[nH]c(N)n3)c2C)cc1 | -0.147
Nc1nonc1N1CCCCC1 | 0.423
COc1ccc(OCCC(=O)OCC(=O)NCc2ccccc2)cc1 | -0.332
Cc1cc2c(c(=O)o1)C1(C(=O)N(CC(=O)O)c3ccccc31)C(C#N)=C(N)O2 (configuration not stated) | -0.219
COc1cc(C(=O)NCc2ccco2)cc(OC)c1OC | -0.0377
CCOC(=O)N1CCN(S(=O)(=O)c2ccc(C)c(C)c2C)CC1 | -0.151
CC(/C=N\N1CCN(Cc2ccc(C)cc2)CC1)=C\c1ccccc1 | -0.207

Compound | z-score
CCCC/C(O)=N\S(=O)(=O)c1ccc(N=NN(C)C)cc1 | 0.315
CC1CN(c2cc3nccnc3cc2F)CC(C)O1 (configuration not stated) | -0.122
O=C(OC(C(=O)NCc1cccs1)c1ccccc1F)c1ccco1 (configuration not stated) | 0.631
CC1(C)C(=O)NCCN1C(=O)CSc1nccc(-c2ccc(Br)cc2)n1 | 0.0525
CCn1c(SCC(=O)Nc2nc(C)cs2)nnc1C(C)NC(=O)c1ccccc1 (configuration not stated) | 0.172
O=C(CO/N=C/c1ccccc1OC(F)F)N1CCc2ccccc21 | -0.112
CCN(CC)c1ccc(Nc2nc(N3CCOCC3)c3ccccc3n2)cc1 | 1.01
Cc1c(CCC(C)C)c(=O)n2c([nH]c3ccccc32)c1C#N | -0.498
CCC(=O)N1CCN(c2ccccc2NC(=O)COc2cc(C)ccc2C(C)C)CC1 | 0.696
Cc1cc(C)n(CC2CC(=O)N(c3cc(Cl)cc(Cl)c3)C2=O)n1 (configuration not stated) | -0.198
O=C(c1ccccc1)N1CCSC1=S | 0.162
CC(=O)NC1C(OCc2ccccc2)OC(CO)C(OC(C)=O)C1OC(C)=O (configuration not stated) | -0.161
Cc1cc2c(cc1C)NC(c1nc3ccccc3[nH]1)C1=C(CC(C)(C)CC1=O)N2 (configuration not stated) | -0.125
O=C(NCc1ccco1)c1ccc2c(c1)C(=O)N(C1CCCCC1)C2=O | -0.402
COc1ccnc(Oc2ccccc2)n1 | -0.163
O=C(CSc1nc2ccccc2o1)N/N=C/c1ccccc1 | 0.038
Cc1sc2ncnc(Sc3ccccc3C(=O)Nc3ccccc3Cl)c2c1C | -0.59
Cc1ccc(-c2cc(-c3ccc4c(c3)OCO4)c(C#N)c(N)n2)o1 | -0.218
COc1ccc2cc(C3(C)NC(=O)NC3=O)ccc2c1 (configuration not stated) | 0.398
CCCS(=O)(=O)N1CCCC(C(=O)NCCN2CCOCC2)C1 (configuration not stated) | -0.118
O=C(c1ccccc1)N1CCN=C1SCc1ccc([N+](=O)[O-])cc1 | -0.311
CCCCCn1c(=O)[nH]c2cc(C(=O)NCc3ccco3)ccc2c1=O | -0.38
O=C(/C=C/c1ccccc1)N(c1ccccn1)C1CCCCC1 | 0.69

Compound | z-score
CCOC(=O)C(=CNc1cc(C)nn1-c1ccc(Cl)cc1)C(=O)OCC | -1.9
CCC(=O)Nc1ccc(N2CCN(C(=O)c3ccccc3C)CC2)cc1 | -0.238
O=C(CC12CC3CC(CC(C3)C1)C2)NCc1ccncc1 | -0.278
Cc1ccc2cc(C#N)c(SCC(=O)Nc3ccc4sc(C)nc4c3)nc2c1 | -0.000728
CS(=O)(=O)N(CC(=O)N1CCc2ccccc2C1)c1ccc2c(c1)OCO2 | -0.346
C=CCNC1=C(Cl)C(=O)N(c2ccccc2Cl)C1=O | -0.236
COC(Cc1nnc(SC)n1-c1ccccc1)OC | -0.151
Cc1cc(C(=O)COC(=O)CCc2nc3ccccc3s2)c(C)n1C | -0.552
C/C(=N\NC(=O)c1cccc(F)c1)c1ccc(Br)s1 | active: 7.29
CCOC(=O)c1ccc(C(=O)OCC)nc1 | -0.364
S=C(NCCCN1CCOCC1)Nc1ccc(Cl)c(Cl)c1 | 0.303
Cc1sc2c(=O)n3c(nc2c1C(=O)NC1CCCCC1)CCCCC3 | -1.83
Cc1nc2sc3c(O)cc(=O)[nH]c3c2c(C)c1C | -0.397
COC(=O)c1sc2ncccc2c1OCc1c(Cl)cccc1Cl | -0.265
O=C(Nc1ccc(Cc2ccncc2)cc1)c1ccc(Br)o1 | 0.733
O=C(CSc1nc2[nH]ncc2c(=O)[nH]1)N1CCCCC1 | -0.0195
O=C(CN1/C(=C(/O)c2ccccc2)C(=O)c2ccccc2S1(=O)=O)c1ccccc1 | 0.815
Cc1nc2cc(NC(=O)NCc3ccco3)ccc2n1C | -0.175
CC(=O)c1c(C)oc2c1C(=O)c1ccccc1C2=O | -0.307
CC1=CC2=NC(=O)/C(=C\c3cccn3CCOc3cc(C)ccc3C)C(=N)N2O1 | 0.0909
